The other results are listed elsewhere or left out.
Each sequence was assayed against T1, OsWOX13 (Oryza sativa, UniProt Q5QMM3 1-267) (assay: protein-binding microarray (RPBM); PBS, 2% BSA, 51.3 ng/ul salmon testes DNA, 50 uM zinc acetate, 200 nM TF, 25 C, 1 h; high values mean tight binding). Conditions: protein: recombinant; tags: N-terminal polyhistidine and DsRed monomer fusion (pET32a); label: CyDye5-dUTP incorporated in the synthesized complementary strand; 3' TTTTT single-stranded linker to array surface; dsDNA, one strand shown.
T1 sequence: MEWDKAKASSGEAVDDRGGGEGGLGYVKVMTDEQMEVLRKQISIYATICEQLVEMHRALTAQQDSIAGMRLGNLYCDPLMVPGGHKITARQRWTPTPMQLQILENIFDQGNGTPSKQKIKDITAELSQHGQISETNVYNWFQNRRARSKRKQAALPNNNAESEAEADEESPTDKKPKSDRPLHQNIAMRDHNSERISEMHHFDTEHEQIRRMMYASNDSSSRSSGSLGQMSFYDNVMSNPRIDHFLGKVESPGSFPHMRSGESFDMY
Outline: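 Transcription factors were each fused at the N-terminus to a polyhistidine tag plus DsRed and expressed in E. coli BL21-CodonPlus before Ni–NTA purification. Binding to a double-stranded custom Agilent array was carried out with 200 nM protein at 25 °C for 1 h in PBS, 2% BSA, salmon testes DNA and 50 µM zinc acetate. The binding signal is per-feature fluorescence intensity, in arbitrary units, on an Axon 4000B scanner.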

| Sequence | binding signal |
| --- | --- |
| AGTACTAAATTAACTTAAAGTTAAGTTTTAAGATATTACACGGAGTCACCTAGTGCAG | 5480 fluorescence intensity (a.u.) |
| CCGTAACCGTATTAACCAGTTATTAACCACCACCTCCTCCCGGAGTCACCTAGTGCAG | 4340 fluorescence intensity (a.u.) |
| ACTTTGAATAGATTACTAATCTGCACTGTCAAGAACAACACGGAGTCACCTAGTGCAG | 14500 fluorescence intensity (a.u.) |
| AAGCAATGACTGTAAACATATAGATCGTGGTTTTATTCTGCGGAGTCACCTAGTGCAG | 4670 fluorescence intensity (a.u.) |
| TACCGATTATTGACCGTTGGATCGAGACAGATCGAACGGCCGGAGTCACCTAGTGCAG | 3210 fluorescence intensity (a.u.) |
| ATGATATTGACAATGGGTCTATTCCGTTCAGCTGGGCTGTCGGAGTCACCTAGTGCAG | 3300 fluorescence intensity (a.u.) |
| GTTTGGACACTAATTATAAATGTTAAACATAGTCTATTAACGGAGTCACCTAGTGCAG | 4280 fluorescence intensity (a.u.) |
| TATAATTTGAACCACCCTTATAATTTTCGTAAGGTAGTAGCGGAGTCACCTAGTGCAG | 10000 fluorescence intensity (a.u.) |
| AATTAAACACTTAATTAACCCTTTGTTCTTCGGTTTATCGCGGAGTCACCTAGTGCAG | 12000 fluorescence intensity (a.u.) |
| TCCCTCAAAATTTTGCTCCATTTACCGTTAGCTCAACGACCGGAGTCACCTAGTGCAG | 3590 fluorescence intensity (a.u.) |
| GTTGTGAGATTAGATTAGAGGGAGGGAGAGGGAGATGGGTCGGAGTCACCTAGTGCAG | 5530 fluorescence intensity (a.u.) |
| ATAAATTATCTATGTTTAAGAGAGTAATGTTGTTGATAAACGGAGTCACCTAGTGCAG | 9320 fluorescence intensity (a.u.) |
| TTATTGACACTATCATCACTGATTTTACATTTAGAACTATCGGAGTCACCTAGTGCAG | 5650 fluorescence intensity (a.u.) |
| CTTTAAGTGAAAAGATTGAATTGGAGGTAGCCCAAAGTGGCGGAGTCACCTAGTGCAG | 5540 fluorescence intensity (a.u.) |
| GATAGATTTCATGTCATCTTAAATTGCTTGGTACTTGCAACGGAGTCACCTAGTGCAG | 6520 fluorescence intensity (a.u.) |
| GCCTTGAAATAAATTTACTTTTATTTATACGGTAGTACGGCGGAGTCACCTAGTGCAG | 4070 fluorescence intensity (a.u.) |
| CTATAATTACATGTGTCGACAAATATACAATTGTGGGGCTCGGAGTCACCTAGTGCAG | 18600 fluorescence intensity (a.u.) |
| ACGGCTGTCAATATACTGAACTGGACTATTCTGTAACTACCGGAGTCACCTAGTGCAG | 3340 fluorescence intensity (a.u.) |
| TCTAATATCTATTAATTTAGAATCAGGGAGAAAGTTCTGTCGGAGTCACCTAGTGCAG | 14200 fluorescence intensity (a.u.) |
| CGAAATTAATTAGCGAAATTAATTAACGCTTTACACAAGGCGGAGTCACCTAGTGCAG | 64900 fluorescence intensity (a.u.) |
| TTGATTAGTGAGCTATTAATGCATGGGCCTCTATAAATAGCGGAGTCACCTAGTGCAG | 12600 fluorescence intensity (a.u.) |

| Sequence | binding signal |
| --- | --- |
| AATATTAATTATAAATATTAAACGTAGACTATTAATAAAACGGAGTCACCTAGTGCAG | 4270 fluorescence intensity (a.u.) |
| CTCATCAATCTCCTCCGTCGCGGTCGCAGCTGCGGGAGTGCGGAGTCACCTAGTGCAG | 3520 fluorescence intensity (a.u.) |
| CATATAAATTGACAACTTCTACTTAAACCTGACATGTGGGCGGAGTCACCTAGTGCAG | 54500 fluorescence intensity (a.u.) |
| GAATAGTAAATTGACGTGGAAAACGAGGGTTTGCGTCTCTCGGAGTCACCTAGTGCAG | 19900 fluorescence intensity (a.u.) |
| GTTAGCTGAGGAGATTGGTGTTAAGATTGCAAACCCATGGCGGAGTCACCTAGTGCAG | 3890 fluorescence intensity (a.u.) |
| CAAATTTTACAGAAATTTGGTTACAGACAGATGCTCCACCCGGAGTCACCTAGTGCAG | 4700 fluorescence intensity (a.u.) |
| AATAGTTAATACTTAATTAATCGTGCAATAATGCATGTTCCGGAGTCACCTAGTGCAG | 9820 fluorescence intensity (a.u.) |
| GATATTAGATTGGCTATAGATGAATTGGAGTTAGTAGTGGCGGAGTCACCTAGTGCAG | 52700 fluorescence intensity (a.u.) |
| TTTTAATTGGAGATAGAGCAGATAGTGAGTTGTTAACCCACGGAGTCACCTAGTGCAG | 30200 fluorescence intensity (a.u.) |
| CTAATGGACTGGAACTAAACAACCAGGCTGTTGCATTCTCCGGAGTCACCTAGTGCAG | 4100 fluorescence intensity (a.u.) |
| CCATCCATTCATCCAGTTAATTAATTAGCTAAGCTAGCTTCGGAGTCACCTAGTGCAG | 17900 fluorescence intensity (a.u.) |
| CCTTGACAGCGGTTCTTTAGATTATGGAAAGAAGTTCAACCGGAGTCACCTAGTGCAG | 12300 fluorescence intensity (a.u.) |
| ATATATATATATATATATATATATATATATATATGAGGGTCGGAGTCACCTAGTGCAG | 28100 fluorescence intensity (a.u.) |
| CTATTGATTGTTGGCGAGCATGTTCTTATCCAGTTGACTTCGGAGTCACCTAGTGCAG | 33100 fluorescence intensity (a.u.) |
| AAATAATTAATCAATTTTAATACTCCTGCGAATAACCGAACGGAGTCACCTAGTGCAG | 35700 fluorescence intensity (a.u.) |
| TTATATTAATTGGCTATTAGATTAGCTATAGATAAATTGGCGGAGTCACCTAGTGCAG | 60400 fluorescence intensity (a.u.) |
| CGGTTCCAAATCAATCAAAACCCTAACCCTAACCCTCCCCCGGAGTCACCTAGTGCAG | 19900 fluorescence intensity (a.u.) |
| TTAACTTAATCAAAACCAGTCATAAAAGATCTTTAGACGGCGGAGTCACCTAGTGCAG | 4360 fluorescence intensity (a.u.) |
| CACTCTATTATTGCAATTCACCGGATGAGAAATTCTCCGTCGGAGTCACCTAGTGCAG | 4530 fluorescence intensity (a.u.) |
| CACATTATTGATACTAATTTTCCCAAAAGTTTTCGGGCTTCGGAGTCACCTAGTGCAG | 27000 fluorescence intensity (a.u.) |
| TACATATCAATAGTATTAATCAATTAACATTCTATTAGAACGGAGTCACCTAGTGCAG | 3390 fluorescence intensity (a.u.) |
